According to PubChem BioAssay AID624296 (National Center for Advancing Translational Sciences (NCATS), 2012):
The whole screen tested about 350,000 compounds, of which about 9,900 (2.8%) were called active. Inconclusive means that the source gave no clear call. Such entries were picked first, then a sample of the others. Calls come from the whole dose curve; as a rule, active = well fitted activation curve with a large enough effect; inconclusive = small, poorly fitted or top-dose-only effect; inactive = no such curve, though single readings can be large or run the other way. Potencies of inconclusive entries are left out as doubtful fits.

assay: A quantitative high throughput screen for small molecules that induce DNA re-replication in MCF 10a normal breast cells.; note: nearly all actives have a fitted effect of over 50% in size; for activity, positive = re-replication: % of control where 0% means no effect; conditions: MCF 10A DNA re-replication, Hoechst nuclear intensity, 48 h; activity, positive = re-replication: at 46.1 µM (top of the series)
Potency is the fitted concentration of half-maximal effect; tags give direction and shape of the fitted curve.

SMILES | Potency | activity, positive = re-replication
Cc1cc(N/N=C/c2cccc(Cl)c2)nc(NCc2ccccc2)n1 | inconclusive [activator, single point] | 
COCCCNc1nc2ccccc2nc1NS(=O)(=O)c1cccs1 |  | inactive: 19.8%
N#CCc1nc(CSc2nc3ccccc3s2)cs1 |  | inactive: -2.14%
CCN(CC)C(=O)[C@H]1CC(CC(=O)NCCc2ccccn2)C(=O)N2CCc3c([nH]c4ccc(OC)cc34)[C@]12C (stereo partly specified) | inconclusive [activator, full curve, poor fit] | 
COc1ccc(C2(C)CC(C)(C)Nc3ccccc32)cc1 (stereo unspecified) |  | inactive: -6.02%
CCOCCCNC(=O)C(NC(=O)c1ccccc1O)c1ccccc1 (stereo unspecified) | inconclusive [activator, single point] | 
CCOc1ccccc1/C=N/NC(=O)c1c(C)nc2ccc(Br)cn12 |  | inactive: -7.01%
CCCN(CC(=O)Nc1ccccc1C)C(=O)c1ccc(COc2ccccc2)cc1 |  | inactive: 26.6%
O=C(CCc1nnc2n(Cc3ccc(Cl)cc3)c(=O)c3ccccc3n12)NCCCN1CCOCC1 |  | inactive: -4.52%
CCC1CCCCN1S(=O)(=O)c1ccc(-n2cnnn2)c(C)c1 (stereo unspecified) |  | inactive: 0.721%
COc1ccc(C(O)Cn2cc([N+](=O)[O-])nc2C)cc1 (stereo unspecified) | inconclusive [activator, full curve, poor fit] | 
CCOC(=O)c1c(C)c(C)n(Cc2cccc(OC)c2OC)c1C | inconclusive [activator, partial curve, poor fit] | 
O=C(CSc1cn(CCNC(=O)c2cccs2)c2ccccc12)NC1CCCC1 |  | inactive: -11.4%
O=C(CCN1C(=O)c2cccc3cccc(c23)C1=O)NCc1ccco1 | inconclusive [activator, partial curve, poor fit] | 
Cc1ccc(C(=O)N2CCC(C(=O)c3ccc(Cl)cc3)CC2)cc1 |  | inactive: -2.09%
COc1ccc(CCNC(C(=O)Nc2cc(C)cc(C)c2)c2ccccc2)cc1 (stereo unspecified) | inconclusive [activator, partial curve, poor fit] | 
CCOC(=O)c1cnc2c(C)cccc2c1Nc1ccc(N2CCOCC2)cc1 | inconclusive [activator, partial curve, poor fit] | 
COc1cc(Cl)ccc1OCc1cc(C(=O)NC2CCc3ccccc32)no1 (stereo unspecified) | inconclusive [activator, partial curve, poor fit] | 
Cc1ccc(Nc2nc(Cl)nc(NC3CCCCC3)n2)cc1 | inconclusive [activator, single point] | 
Cc1c(NC(=O)Nc2cccc(F)c2)c(=O)n(-c2ccccc2)n1C |  | inactive: -4.88%
CCOc1ccccc1C(=O)N[C@H](C(=O)Nc1nc2c(s1)CCCC2)C(C)C | inconclusive [activator, single point] | 
O=C(CC1C(=O)N(c2ccccc2)C(=O)N1Cc1ccco1)Nc1ccccc1 (stereo unspecified) |  | inactive: -2.68%
S=c1[nH]nc(Cn2nnc3ccccc32)n1-c1ccc(Cl)cc1 |  | inactive: 0.0787%
Cn1cccc1/C=C1\SC(=Nc2ccc(O)cc2)NC1=O | active: 0.58 µM | 

SMILES | Potency | activity, positive = re-replication
COc1cc(/C=C(\C#N)C(=O)NCc2ccccc2)ccc1OCc1ccc(C(=O)O)cc1 | inconclusive [activator, single point] | 
Cc1cccn2cc(-c3ccc(Cl)cc3)nc12 | inconclusive [activator, single point] | 
Nc1[nH]n2c(=O)c3c(nc2c1N=Nc1ccccc1)CCCC3 | inconclusive [activator, single point] | 
CCOC(=O)C1(CCOc2ccccc2)CCN(Cc2cccc(-n3cccn3)c2)CC1 | inconclusive [activator, single point] | 
Cc1cc(C)c2c(=N)c3ccccc3n(CCCCCCCCn3c4ccccc4c(=N)c4c(C)cc(C)nc43)c2n1 | inconclusive [activator, single point] | 
O=S(=O)(Nc1cccnc1)c1cc(Cl)ccc1Cl | inconclusive [activator, single point] | 
CCOc1ccc(NC(=O)CN(C)C(=O)c2ccccc2OCc2cccc(C)c2)cc1OCC | inconclusive [activator, full curve, poor fit] | 
CSc1ncccc1C(=O)OCC(=O)c1ccccc1 |  | inactive: -1.5%
COC(=O)[C@]1(C)N[C@H](CN(C)C(=O)Nc2ccc(OC)cc2)[C@@H]2C(=O)N(C)C(=O)[C@@H]21 |  | inactive: 1.05%
O=C(CSc1nc2ccccc2s1)N1c2ccccc2Sc2ccccc21 | inconclusive [activator, full curve, poor fit] | 
COc1cccc(CNC(=O)CN2C(=O)CSc3ccc(S(=O)(=O)N4CCCC4)cc32)c1 |  | inactive: 1.99%
CCc1ccc(NC(=O)CC2C(=O)N(c3ccc(OC)cc3)C(=O)N2CCOC)cc1 (stereo unspecified) | inconclusive [activator, single point] | 
CCN1CCc2c(C#N)c(NCc3ccccc3)nc(N(CC)CC)c2C1 |  | inactive: 8.89%
Cn1cnnc1SCC(=O)Nc1ccccc1C(=O)NC1CCCC1 | inconclusive [activator, partial curve, poor fit] | 
CC(=O)NC1=NN(C(C)=O)C(C)(c2ccccc2)S1 (stereo unspecified) |  | inactive: -4.08%
O=C(CNC(=O)c1ccc(Cl)c([N+](=O)[O-])c1)OCN1C(=O)c2ccccc2C1=O | inconclusive [activator, partial curve, poor fit] | 
O=[N+]([O-])c1cccc(NC(=S)N2CCc3ccccc32)c1 |  | inactive: -1.64%
CCOc1ccc(NC(=O)C23CC4CC(C2)CC(c2ccccc2)(C4)C3)cc1 | inconclusive [activator, partial curve, poor fit] | 
CSc1ccc(C=NNc2ccc(S(=O)(=O)Nc3ccccc3C(=O)O)cc2[N+](=O)[O-])cc1 | inconclusive [activator, single point] | 
C=CCOc1cccc(C(=O)N2CCCC(Nc3ccc4c(c3)OCCO4)C2)c1 (stereo unspecified) | inconclusive [activator, single point] | 
COc1ccc(C(C(=O)NC2CCCC2)N(CCC(C)C)C(=O)CCC(=O)Nc2cc(C)on2)cc1 (stereo unspecified) |  | inactive: 21.3%
O=S(=O)(c1cccc2nsnc12)N1CCCC1 |  | inactive: 13.2%
COc1cccc(/C=N/Nc2ncc(C(F)(F)F)cc2Cl)c1O | active: 1.46 µM | 
Cc1nnc(N/N=C/c2cccc(C(F)(F)F)c2)n1N | inconclusive [activator, single point] | 

SMILES | Potency | activity, positive = re-replication
COc1ccc(Cn2c(=S)[nH]c3ccccc3c2=O)cc1 | inconclusive [activator, partial curve, poor fit] | 
Cc1ccc(/C=N/NC(=O)C2COc3ccccc3O2)s1 (stereo unspecified) | active: 1.84 µM | 
Cc1noc2ncnc(N3CCN(c4cccc(Cl)c4)CC3)c12 | inconclusive [activator, single point] | 
O=C(O)CCc1ccc(-c2ccc(Br)cc2)n1Cc1ccco1 | inconclusive [activator, single point] | 
CCc1ccc(Nc2ncc3c(n2)CC(c2ccc(OC)cc2)CC3=O)cc1 (stereo unspecified) | active: 18.4 µM | 
Cc1cc(O)c(C(=O)/C=C/c2cccc([N+](=O)[O-])c2)c(=O)o1 | inconclusive [activator, single point] | 
COC(C[C@@H]1O[C@@H]1C(=O)COCc1ccccc1)OC |  | inactive: 5.8%
C[C@H](NC(=O)c1nc[nH]c1C(=O)NCc1ccc(CNC(=O)OC(C)(C)C)cc1)C(=O)OC(C)(C)C | inconclusive [activator, single point] | 
CCCCCCCC[n+]1c(C)n(-c2ccccc2)c2ccc(NC(C)=O)cc21 |  | inactive: 28.4%
CC1=NN(C(=O)COc2cc(C)ccc2C(C)C)C(O)(c2ccccc2)C1 (stereo unspecified) | inconclusive [activator, single point] | 
COCCN(C(=O)Cc1cccs1)C(C(=O)NCc1ccc(OC)cc1)c1ccc(C(C)C)cc1 (stereo unspecified) | inconclusive [activator, partial curve, poor fit] | 
CN(C)CCCN(Cc1cc2cc3c(cc2[nH]c1=O)OCO3)C(=S)Nc1ccccc1 |  | inactive: 2.59%
O=C(NC(=O)N1CCN(c2ccccc2F)CC1)c1ccccc1 | inconclusive [activator, single point] | 
OCC[C@H]1C[C@H](O)[C@@H](O)[C@@]2(Cc3ccccc3CCO2)O1 | inconclusive [activator, partial curve, poor fit] | 
O=C(COC(=O)[C@H](Cc1c[nH]c2ccccc12)NC(=O)c1cccs1)NCc1ccccc1 | inconclusive [activator, partial curve, poor fit] | 
CC(C)(O)C#Cc1ccc(CN2CCC(CO)(CCc3ccccc3)CC2)cc1 | inconclusive [activator, single point] | 
Cc1nn(C)c(C)c1S(=O)(=O)N1CCCC(C(=O)NC2CCCCC2)C1 (stereo unspecified) | inconclusive [activator, single point] | 
C/C(=N\NC(=O)C1(C)CC1(Br)Br)c1ccc(NC(=O)c2ccc(C)o2)cc1 (stereo unspecified) | inconclusive [activator, single point] | 
CCCNS(=O)(=O)c1ccc(OCC(=O)Nc2ccc3c(c2)OCCO3)c(C)c1 |  | inactive: 6.5%
CCc1c(C)sc(NC(=O)c2cc(-c3ccc(O)cc3)on2)c1C#N | active: 11.6 µM | 
O=C(C1CCCN(Cc2ccccc2Cl)C1)N1CCCCC1 (stereo unspecified) |  | inactive: -0.755%
N#CC1=C(N)Oc2cc(N)ccc2C1c1cccc(Br)c1 (stereo unspecified) | active: 1.64 µM | 
Cc1ccc2nc(N3CCN(S(=O)(=O)c4ccc5c(c4)OCCO5)CC3)c(C#N)cc2c1 | inconclusive [activator, full curve] | 
